Reference: article PMC12040169 (PLOS Biology, 2025)
The list shows a part of the results.

system: T1, C. trachomatis L2/434/Bu expressing GFP (CTL2-GFP); set-up: species or system HeLa; C. trachomatis total inclusion area by high-content imaging, normalised to DMSO; settings: total inclusion area; 28.5 h, 10 µM; inhibitor
T1 construct: L2/434/Bu GFP intracellular growth in HeLa cells
Procedure, shortened: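 Imaging read-out: GFP inclusions and Hoechst nuclei captured by high-content imaging after fixation. Inclusion area/number = chlamydial growth; nuclei count = host cell viability. MIC calculated per earlier method.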

SMILES	% of control remaining
COc1ccc(-c2n[nH]c(=S)n2CC(=O)N2CCN(c3cccc(C)c3)CC2)cc1 [CBK295352]	120.748
CC(C)n1c(=O)c2c(-c3cc(C(C)(C)C)no3)ncn2c2ccccc21 [CBK016666]	103.173
Nc1n[nH]c(=O)c2ncn([C@H]3C[C@@H](O)[C@@H](CO)O3)c12 [CBK201233]	91.1262
O=C(NCc1ccc2c(c1)CCN2C(=O)c1ccncc1)c1cccc(F)c1 [CBK288586]	116.213
COc1ccc(CNC(=O)NC(=O)C2CCN(S(C)(=O)=O)CC2)c(OC)c1 [CBK034861]	93.4414
Cc1ccc2nc(-c3ccc(NC(=O)CSc4nc(-c5ccccc5)cc(=O)[nH]4)cc3)sc2c1 [CBK265861]	132.964
Cc1nc(C)n(CC2CCCN(Cc3cn4ccccc4c3C#N)C2)n1 (stereo not drawn) [CBK306103]	74.1709
CC(=O)N1CCC2(C/C=C/C[C@H]3CN(C(=O)CC4CCOCC4)CC[C@H]3NC(=O)CNC2=O)CC1 [CBK292109]	109.134
O=C(CSc1nc2cc(Cl)ccc2[nH]1)Nc1ccccc1F [CBK269916]	75.8288
CCNS(=O)(=O)C1CCN(c2cc(C#N)ccc2C(F)(F)F)C1 (stereo not drawn) [CBK305402]	95.7806
O=S(=O)(Nc1ccc2[nH]ccc2c1)c1c(Cl)cc(C(F)(F)F)cc1Cl [CBK156328]	89.2467
COc1ccc(CCC(=O)Nc2cccc(OCCC3CCNCC3)c2)cc1OC [CBK138350]	97.764
O=C(Nc1ccc(Br)cc1C(=O)O)c1ccc2c(c1)C(=O)N(Cc1cccnc1)C2=O [CBK266776]	95.8326
Cn1c(CN2CCOCC2)nnc1SCC(=O)Nc1cccc(F)c1 [CBK269629]	95.7846
O=C(NCC(=O)N(c1cccc(C(F)(F)F)c1)C(C(=O)NCc1ccco1)c1ccccc1F)c1ccco1 (stereo not drawn) [CBK084740]	89.7288
COc1ccccc1CN(CC1CCNCC1)C(=O)NC(c1ccccc1)c1ccccc1 [CBK049741]	90.9734
O=C1c2ccc(Oc3ccc4c(c3)C(=O)N(c3cccnc3)C4=O)cc2C(=O)N1c1cccnc1 [CBK262773]	96.7871
Cc1nc(C)c(C(=O)Nc2nn(C)c3cccc(N4CCOCC4)c23)o1 [CBK306534]	70.1495
O=C(c1cccnc1)C1CCN(C(=O)C2CCCCC2)CC1 [CBK283817]	102.649
CCOC(=O)C(Cc1ccccc1)C(=O)Nc1ccc(Cl)cc1 (stereo not drawn) [CBK261463]	101.878
COc1ccc2[nH]cc(CC(=O)Nc3nc4c(OC)cccc4s3)c2c1 [CBK149279]	105.726
CCn1c(SCc2cccnc2)nc2c(c1=O)SC(C)C2 (stereo not drawn) [CBK287643]	98.1881
O=C(c1cnc(-c2ccncc2)s1)N(CC(F)(F)F)C1CCC1 [CBK304119]	28.0495
Cc1cc(=O)n2c(C(=O)Nc3cccc(C(=O)O)c3)c(C(=O)Nc3cccc(C)c3C)sc2n1 [CBK297545]	91.0746

SMILES	% of control remaining
CN(C)CCN(C)Cc1ccc2c(c1)Cc1ccccc1-2 [CBK261856]	99.823
CN(C)CC(=O)N1CCc2nc(-c3ccccc3F)sc2C1 [CBK281918]	102.828
O=C(O)c1cccc(CSc2nc3ccccc3o2)c1 [CBK270193]	100.486
C=CCN1C(=O)CC2(C1=O)C(=O)N(Cc1ccc(S(=O)(=O)N(CC)CC)cc1)c1ccc(Cl)cc12 (stereo not drawn) [CBK075412]	72.3911
Cc1cc(C(=O)CSc2nnc(C3CC3)[nH]2)c(C)n1-c1cccc(C(F)(F)F)c1 [CBK295310]	99.6572
CC(C)c1ccc(C(C)NC(=O)c2cccn(CC(=O)NC3CCCC3)c2=O)cc1 (stereo not drawn) [CBK286018]	117.616
COc1ccc(NS(=O)(=O)c2cc(C(=O)O)c(Cl)cc2Cl)cc1 [CBK095077]	111.016
CCC(Oc1cccc(Cl)c1)C(=O)NN1CCN(C)CC1 (stereo not drawn) [CBK268135]	95.8702
N#CCCN(C1CCCCC1)S(=O)(=O)c1ccc(-c2ccc([N+](=O)[O-])cc2)cc1 [CBK261382]	87.4778
COc1ccc2[nH]cc(CCNC(=O)N(C)C3CCN(C)C3)c2c1 (stereo not drawn) [CBK156004]	89.0917
COc1ccc(OC)c(-c2cc(C(=O)O)c(C)o2)c1 [CBK049343]	67.2771
CC1(C)OCC2(CCN(C(C)(C)C)CC2)O1 [CBK038298]	74.12
Cc1ccc(OCc2nnc(SCC(=O)c3cccc([N+](=O)[O-])c3)n2C)cc1 [CBK268580]	117.146
COc1ccc(Cn2c(=O)[nH]n(-c3ccccc3)c2=O)cc1F [CBK122772]	104.617
O=C(Nc1cccc2cccnc12)c1cccc2ccccc12 [CBK261473]	78.7778
FC(F)(F)c1cccc(OCc2ccc(-c3ccccc3)cc2)n1 [CBK115836]	106.666
O=C1N[C@H]2CCCN(C(=O)Cn3cccnc3=O)[C@H]2CCCCCOc2ccccc21 [CBK292096]	132.393
COc1ccc(-c2ccc(/C=N/N=C3\NC(=O)C(CC(=O)O)S3)o2)c([N+](=O)[O-])c1 (stereo not drawn) [CBK264516]	98.1116
c1ccc2c(Sc3cc(N4CCCC4)ncn3)cccc2c1 [CBK089538]	105.921
CNC(=O)CSc1nc2ccccc2nc1NC(C)C [CBK107171]	110.68
O=C(O)CN1C(=O)c2ccc(C(=O)c3ccc4c(c3)C(=O)N(CC(=O)O)C4=O)cc2C1=O [CBK262166]	98.8028
O=C(c1ccc(-c2cnc3[nH]c(=O)n(Cc4ccccn4)c3n2)cc1)N1CCOCC1 [CBK064413]	93.5769
CC(=O)Nc1cccc(NC(=O)N2CCCC(CO)C2)c1 (stereo not drawn) [CBK156049]	93.2521
Cc1nn(C)c(N2CCNCC2)c1NC(=O)Cc1c[nH]c2ccccc12 [CBK050256T]	100.498
